Test results: article PMC4336329 (PLoS ONE, 2015)
Hit rate of the full screen: of about 310,000 compounds, about 2,200 (0.71%) showed an effect of 50% or more. The effect is printed as a negative number. The list shows a part of the results.

The molecules below were run against human ether-à-go-go-related gene (hERG) potassium channel (human, UniProt Q12809) (assay: primary screen, population patch clamp on CHO cells stably expressing hERG).
Chain of human ether-à-go-go-related gene (hERG) potassium channel (Q12809 whole entry, looked up): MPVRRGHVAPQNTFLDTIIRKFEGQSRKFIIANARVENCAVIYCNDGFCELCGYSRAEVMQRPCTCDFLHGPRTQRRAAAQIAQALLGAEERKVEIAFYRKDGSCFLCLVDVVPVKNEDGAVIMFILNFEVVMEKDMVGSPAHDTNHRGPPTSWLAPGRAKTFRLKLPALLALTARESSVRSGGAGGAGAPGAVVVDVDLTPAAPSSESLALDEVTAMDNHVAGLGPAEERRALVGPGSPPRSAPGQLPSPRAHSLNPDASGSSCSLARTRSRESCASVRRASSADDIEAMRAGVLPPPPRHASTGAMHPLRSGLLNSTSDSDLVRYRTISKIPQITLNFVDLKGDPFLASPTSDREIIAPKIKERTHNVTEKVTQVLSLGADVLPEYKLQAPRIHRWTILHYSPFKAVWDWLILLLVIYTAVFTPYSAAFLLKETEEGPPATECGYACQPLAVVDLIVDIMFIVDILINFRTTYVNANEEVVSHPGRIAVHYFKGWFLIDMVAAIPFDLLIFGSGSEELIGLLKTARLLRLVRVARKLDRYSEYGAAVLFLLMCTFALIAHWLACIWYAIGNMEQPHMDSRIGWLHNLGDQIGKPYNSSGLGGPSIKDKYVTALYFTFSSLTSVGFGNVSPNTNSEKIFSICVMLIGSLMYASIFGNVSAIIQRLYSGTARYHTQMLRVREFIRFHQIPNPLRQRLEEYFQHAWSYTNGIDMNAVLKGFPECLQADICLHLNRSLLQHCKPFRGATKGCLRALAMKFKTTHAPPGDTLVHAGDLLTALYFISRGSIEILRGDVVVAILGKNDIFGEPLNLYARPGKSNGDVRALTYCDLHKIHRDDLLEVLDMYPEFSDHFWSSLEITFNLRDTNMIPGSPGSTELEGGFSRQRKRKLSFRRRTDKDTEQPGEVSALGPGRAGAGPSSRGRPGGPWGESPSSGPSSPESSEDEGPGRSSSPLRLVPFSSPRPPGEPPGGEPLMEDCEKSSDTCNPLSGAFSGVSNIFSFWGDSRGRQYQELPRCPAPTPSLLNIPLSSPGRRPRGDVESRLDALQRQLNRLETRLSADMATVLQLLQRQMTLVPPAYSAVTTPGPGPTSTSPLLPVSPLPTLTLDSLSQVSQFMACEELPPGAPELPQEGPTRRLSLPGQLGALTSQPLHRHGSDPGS

Row | Compound | hERG current change (%, negative = inhibition) at 1uM [%]
1 | O=C(O)CCNS(=O)(=O)c1ccccc1Br | -3.26
2 | COc1ccc(NC(=O)Cc2ccsc2)cc1S(=O)(=O)N1CCOCC1 | 14.2
3 | O=C(COC(=O)c1cccc([N+](=O)[O-])c1)NCc1ccc2c(c1)OCO2 | 11
4 | COCC1CCN(C(=O)C2CCC(=O)N(CCc3ccc(Cl)cc3)C2)CC1 (stereo not drawn) | 12.6
5 | CN(C1CCCCC1)S(=O)(=O)c1ccc(NC(=O)c2ccco2)cc1 | 13.4
6 | CCN(Cc1ccccc1)C(=O)c1cc(-c2ccc(OC)c(OC)c2)nc2ccccc12 | 12.6
7 | O=C(CSc1nc2ccccc2c(=O)n1-c1ccc(F)cc1F)Nc1ccc2c(c1)CCC2 | 11.6
8 | O=C1OC(c2ccccc2)/C(=C(/O)c2ccccc2)C1=O (stereo not drawn) | 9.72
9 | Cc1cc(C)cc(N(CCC#N)C(=O)CSc2nc3nc(C)cc(C)n3n2)c1 | 6.85
10 | C=CCn1c(C)cc(-c2csc(NCC)n2)c1C | 6.16
11 | O=C(CSCc1ccccn1)Nc1ccccc1 | -0.275
12 | O=C(NC12CC3CC(CC(C3)C1)C2)c1ccc(N2CCNCC2)c([N+](=O)[O-])c1 | 8.55
13 | Cc1ccc2[nH]c(=O)c3cc(C(=O)N(CCCOC(C)C)Cc4ccco4)sc3c2c1 | 11.1
14 | O=C(COc1ncnc2sccc12)N1CCN(S(=O)(=O)c2ccc(Cl)cc2)CC1 | 4.25
15 | CCOC(=O)c1cnc(SCc2cccc3ccccc23)nc1N | 11.3
16 | COc1ccccc1C(=O)NC(=O)COC(=O)Cc1ccc(F)cc1 | 8.35
17 | CC(=O)c1cccc(NC(=O)CC2S/C(=N/N=C/c3ccccc3)NC2=O)c1 (stereo not drawn) | 6.93
18 | Cc1cc(-c2csc(NC(=O)c3ccccc3C(F)(F)F)n2)c(C)n1Cc1ccccc1 | 14.1
19 | O=C(NCCc1ccccc1)c1ccc(NCC2CCCO2)c([N+](=O)[O-])c1 (stereo not drawn) | -19.9

Row | Compound | hERG current change (%, negative = inhibition) at 1uM [%]
20 | NC(=O)Cn1cc(C(=O)c2ccccc2)c2ccccc21 | 12.8
21 | Cc1ccc(/C=N/NC(=S)N2CCOCC2)cc1 | 14.4
22 | Cc1cc(C(=O)N(C)CC(=O)Nc2cccc(F)c2)no1 | 23.3
23 | CCC1CCCCN1C(=O)Cn1c(C(=O)OC)cc2ccsc21 (stereo not drawn) | 12.9
24 | O=S(=O)(NCC(c1cccnc1)N1CCN(c2ccc(F)cc2)CC1)c1ccccc1 (stereo not drawn) | -9
25 | CCc1cc(=O)oc2c(C)c(OCC(=O)N3CCCc4ccccc43)ccc12 | 6.25
26 | CC(C)CC(=O)n1sc(NC(=O)c2ccccc2)nc1=O | 3.03
27 | Cc1ccccc1Cn1cnc2c(cnn2C(C)(C)C)c1=O | 6.11
28 | COCCNC(=O)CN(C(=O)CCC(=O)Nc1ccccn1)c1ccc(C)c(C)c1 | 15.7
29 | CCOC(=O)N1CCN(CC(O)c2c[nH]c3ccccc23)CC1 (stereo not drawn) | 16.2
30 | CCS(=O)(=O)Nc1ccc(C2=NN(S(=O)(=O)CC)C(c3cccs3)C2)cc1 (stereo not drawn) | 7.91
31 | COc1ccc(C(=O)C2CCCN(S(=O)(=O)c3ccc(C(C)=O)cc3)C2)c(C)c1 (stereo not drawn) | 11.2
32 | O=C(NCCCN1CCOCC1)C1COc2ccccc2O1 (stereo not drawn) | 23.8
33 | O=C(/C=C/c1ccc2c(c1)OCO2)NCc1ccncc1 | 10
34 | CC(C)(C)C(=O)c1cnc(Nc2ccccc2)s1 | 3.13
35 | COc1ccc(-c2nc(S(=O)(=O)c3ccc(C)cc3)c(N3CCCC3)o2)cc1 | 9.56
36 | O=C(CSc1nnc2c(n1)[nH]c1ccc(S(=O)(=O)N3CCOCC3)cc12)Nc1ccc(F)c(F)c1 | -1.02
37 | C[C@]12CC[C@@H]3c4ccc(O)cc4C(=O)C[C@H]3[C@@H]1CC[C@@H]2O | -16.4
38 | O=C(CCN1C(=O)[C@@H]2Cc3ccccc3CN2C1=O)N[C@@H](Cc1ccccc1)C(=O)O | 10.6

Row | Compound | hERG current change (%, negative = inhibition) at 1uM [%]
39 | CCc1nc(SCC(=O)NCC2CCCO2)c2c(=O)n(C)c(=O)n(C)c2n1 (stereo not drawn) | 11.9
40 | O=C(Nc1ccc2nsnc2c1)N1CCCCC1 | 11.2
41 | Cc1ccnc2nc(C(=O)Nc3cc(Cl)ccc3N3CCOCC3)nn12 | 10.7
42 | CC(C)NC(=O)COC(=O)c1ccc(O)cc1 | 6.17
43 | O=C(O)c1cc(-c2ccco2)nc2ccccc12 | 17.1
44 | COc1cccc(Nc2ncnc3nc[nH]c23)c1 | 3.68
45 | CCOc1ccc(-n2c(SCC(=O)Nc3cc(C)on3)nc3c([nH]c4ccccc43)c2=O)cc1 | 8.2
46 | CC(C)(C)NC(=O)NC(=O)COC(=O)Cn1c(C(F)(F)F)nc2ccccc21 | 18
47 | O=C(c1ccc(N2CCCCC2)c([N+](=O)[O-])c1)N1CCC2(CC1)OCCO2 | -7.03
48 | CCOC(=O)CC(=O)CSc1ncnc2c1nnn2-c1ccccc1 | 14.2
49 | CC(C)OC(=O)c1cccc(C(=O)O)n1 | 8.82
50 | O=[N+]([O-])c1cccc(S(=O)(=O)Nc2ccc(-c3ccc(N4CCCC4)nn3)cc2)c1 | 6.92
51 | CC[n+]1c(C)sc2c3ccsc3ccc21.[I-] | 8.43
52 | FC(F)(F)c1nnc2ccc(NCn3nnc4ccccc43)nn12 | 12.1
53 | CC(C)(C)C(=O)Nc1nnc(SCC(=O)NC2CCCCC2)s1 | 18.1
54 | CC1CC(C)(C)NC(=S)N1CCCC(=O)NCCc1ccc(Cl)cc1 (stereo not drawn) | 3.92
55 | CCCOc1ccc2c(=O)c(N3C(=O)c4ccccc4C3=O)c(C)oc2c1 | -5.81
56 | O=C(CC(c1ccccc1)c1ccccc1)N1CCN(c2ccccn2)CC1 | -10.8
57 | Cc1nc2ccccn2c1C(=O)N/N=C/c1cc(C)n(-c2ccc(Cl)cc2)c1C | -0.425
